Values joined by “and” are separate entries in the source; they are usually repeats but may differ in a detail not shown here. Equal values may be shown once. Among all 1,800 compounds or so, about 50 (3%) showed activity. The list shows a part of the results.
tested on: mouse p16Ink4a+/- lung fibroblasts (INKBRITE, bleomycin-injured); test: percentage of GFP+ (p16Ink4a+) fibroblasts among all cells in well; higher = less depletion of p16Ink4a+ cells, active = 20 or less; conditions: 1 µM; 3 days
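Note: fibroblasts sorted 14 days after bleomycin, GFP+ and GFP− mixed 1:1 in 384-well plates (GFP− as in-well control), imaged after Hoechst and NucView530 staining, reference wells lacked compound.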

Compound | percentage of GFP+
COc1cccc2c1C(=O)c1c(O)c3c(c(O)c1C2=O)C[C@@](O)(C(C)=O)C[C@@H]3O[C@H]1C[C@H](N)[C@H](O)[C@H](C)O1 [Daunorubicin] | inactive: 24.3%
c1ccc(CNc2nc(NCc3ccccc3)c3ccccc3n2)cc1 | inactive: 52.1%
CC(C)NC[C@@H](C(=O)N1CCN(c2ncnc3c2[C@H](C)C[C@H]3O)CC1)c1ccc(Cl)cc1 | inactive: 48.3%
COc1ccc(/C=C/C(=O)Nc2ccccc2C(=O)O)cc1OC [Tranilast] | inactive: 48.4%
CC(C)(C)c1cnc(CSc2cnc(NC(=O)C3CCNCC3)s2)o1 | inactive: 28.7%
CN(C)C(=O)c1cc2cnc(Nc3ccc(N4CCNCC4)cn3)nc2n1C1CCCC1 [Ribociclib] | inactive: 33.4%
CNS(=O)(=O)Cc1ccc2[nH]cc(CCN(C)C)c2c1 [Sumatriptan] | inactive: 41.3%
NS(=O)(=O)c1cc(C(=O)O)c(NCc2ccco2)cc1Cl [Furosemide] | inactive: 44.2%
Cn1cc(-c2[nH]c3cc(NC(=O)[C@H](N)C4CCCCC4)cc4c3c2C=NNC4=O)cn1 | inactive: 34.8%
CCn1cc(-c2ccnc3[nH]c(-c4cccc(CN(C)C)c4)cc23)c(-c2ccc(NC(=O)N(C)C)cc2)n1 | inactive: 36.6%
C#Cc1cccc(Nc2ncnc3cc(OC)c(OCCCCCCC(=O)NO)cc23)c1 | inactive: 37.4%
O=C(Nc1ccc2c(=O)cc(-c3nn[nH]n3)oc2c1)c1ccc(OCCCCc2ccccc2)cc1 [Pranlukast] | inactive: 35.1%
NS(=O)(=O)c1cc2c(cc1Cl)NC=NS2(=O)=O [Chlorothiazide] | inactive: 47.1%
O=c1n(CCCN2CCN(c3cccc(Cl)c3)CC2)nc2ccccn12 [Trazodone] | inactive: 47.3%
O=C(Nc1ccncc1)c1cc([N+](=O)[O-])ccc1Cl | inactive: 37.9%
Nc1cc(F)ccc1NC(=O)/C=C/c1cnn(C/C=C/c2ccccc2)c1 | inactive: 42.8%
CN(c1ncccc1CNc1nc(Nc2ccc3c(c2)CC(=O)N3)ncc1C(F)(F)F)S(C)(=O)=O | inactive: 47.5% and inactive: 35.2% and inactive: 41.3%
CN1CCN(c2c(F)cc3c(=O)c(C(=O)O)cn4c3c2OCN4C)CC1 [Marbofloxacin] | inactive: 37.3%
COc1cc2c(Nc3ccc(NC(=O)c4ccccc4)cc3)ncnc2cc1OCCCN1CCOCC1 | inactive: 42%
CC[C@H](C)[C@H]1O[C@]2(CC[C@@H]1C)C[C@@H]1C[C@@H](C/C=C(\C)[C@@H](O[C@H]3C[C@H](OC)[C@@H](O[C@H]4C[C@H](OC)[C@@H](O)[C@H](C)O4)[C@H](C)O3)[C@@H](C)/C=C/C=C3\CO[C@@H]4[C@H](O)C(C)=C[C@@H](C(=O)O1)[C@]34O)O2 [Ivermectin] | inactive: 37.9%
CC(NC(=O)c1ccccc1/N=C/c1c(O)ccc2ccccc12)c1ccccc1 (stereo unspecified) [Sirtinol] | inactive: 41.1%
CN(C)CC(c1ccc(O)cc1)C1(O)CCCCC1 (stereo unspecified) [Desvenlafaxine] | inactive: 48.3% and inactive: 52.9%

Compound | percentage of GFP+
Cc1[nH]c2ccccc2c1CCNCc1ccc(/C=C/C(=O)NO)cc1 [Panobinostat] | active: 2.9%
CC(C)CC(N)=O [Isovaleramide] | inactive: 51.2%
COCCCOc1cc(C[C@@H](C[C@H](N)[C@@H](O)C[C@H](C(=O)NCC(C)(C)C(N)=O)C(C)C)C(C)C)ccc1OC [Aliskiren] | inactive: 43.2%
Nc1ncn([C@H]2C[C@H](O)[C@@H](CO)O2)c(=O)n1 [Decitabine] | inactive: 31%
CN(C)C(=O)COC(=O)Cc1ccc(OC(=O)c2ccc(NC(=N)N)cc2)cc1 [Camostat] | inactive: 41.3%
CCCCC(=O)N(Cc1ccc(-c2ccccc2-c2nn[nH]n2)cc1)[C@H](C(=O)O)C(C)C [Valsartan] | inactive: 41.6%
O=C(O)c1cc(N=Nc2ccc(S(=O)(=O)Nc3ccccn3)cc2)ccc1O [Sulfasalazine] | inactive: 39.2%
Cn1cnc2c(F)c(Nc3ccc(Br)cc3Cl)c(C(=O)NOCCO)cc21 [Selumetinib] | inactive: 43.8%
O=C(c1ccc(C(=O)N2CCC(N3CCCC3)CC2)c(Nc2ccccc2)c1)N1CCC(N2CCCC2)CC1 | inactive: 43.6%
CC[C@H](C)C(=O)O[C@H]1CCC=C2C=C[C@H](C)[C@H](CC[C@@H]3C[C@@H](O)CC(=O)O3)[C@H]21 [Mevastatin] | inactive: 48.9%
CC[C@]1(O)C[C@@H]2CN(CCc3c([nH]c4ccccc34)[C@@](C(=O)OC)(c3cc4c(cc3OC)N(C)[C@@H]3C45CCN4CC=C[C@](CC)([C@H]45)[C@@H](OC(C)=O)[C@]3(O)C(=O)OC)C2)C1 (stereo partly specified) [Vinblastine] | inactive: 24.8%
NC(=O)Cc1cccc(C(=O)c2ccccc2)c1N [Nepafenac] | inactive: 44.9%
C=C1CC[C@H](O)C/C1=C/C=C1\CCC[C@]2(C)[C@@H]([C@H](C)/C=C/[C@H](C)C(C)C)CC[C@@H]12 [Ergocalciferol] | inactive: 44.9%
Cc1onc(-c2c(Cl)cccc2Cl)c1C(=O)N[C@@H]1C(=O)N2[C@@H]1SC(C)(C)[C@@H]2C(=O)O [Dicloxacillin] | inactive: 49.2%
O=C(O)c1ccc2c(c1)nc(Nc1cccc(Cl)c1)c1ccncc12 [Silmitasertib] | inactive: 43.8%
CC(C)NCC(O)COc1cccc2ccccc12 (stereo unspecified) [Propranolol] | inactive: 48.8%
O=C1CCc2ccc(OCCCCN3CCN(c4cccc(Cl)c4Cl)CC3)cc2N1 [Aripiprazole] | inactive: 43.3%
COc1cc(O)cc([C@@H]2CC(=O)c3c(O)cc(O[C@@H]4O[C@H](CO)[C@@H](O)[C@H](O)[C@H]4O[C@@H]4O[C@@H](C)[C@H](O)[C@@H](O)[C@H]4O)cc3O2)c1 [Neohesperidin] | inactive: 49.7%
CCCCOc1cc(C(=O)NCCN(CC)CC)c2ccccc2n1 [Cinchocaine] | inactive: 47.9%
COc1ccc(-c2coc3cc(O)ccc3c2=O)cc1 [Formononetin] | inactive: 41.6%
Nc1ccccc1NC(=O)c1ccc(CNc2nccc(-c3cccnc3)n2)cc1 [Mocetinostat] | active: 12.6%
C/C(=C\C(=O)Nc1ccccc1C(=O)O)c1ccc2ccccc2c1 | inactive: 30%

Compound | percentage of GFP+
C#Cc1cccc(Nc2ncnc3cc(OCCOC)c(OCCOC)cc23)c1 [Erlotinib] | active: 7.35%
C=CC[N+]1([C@H]2C[C@H]3[C@@H]4CC[C@H]5C[C@H](O)[C@@H](N6CCOCC6)C[C@]5(C)[C@H]4CC[C@]3(C)[C@H]2OC(C)=O)CCCC1 [Rocuronium] | inactive: 54.9%
COc1c(C)c2c(c(O)c1C/C=C(\C)CCC(=O)O)C(=O)OC2 [Mycophenolic Acid] | inactive: 25.9%
C[C@]12C=CC(=O)C=C1CC[C@@H]1[C@@H]2[C@@H](O)C[C@@]2(C)[C@H]1CC[C@]2(O)C(=O)CO [Prednisolone] | inactive: 34.4%
CCCCNC(=O)NS(=O)(=O)c1ccc(C)cc1 [Tolbutamide] | inactive: 46.3%
CN1C(C(=O)Nc2ccccn2)=C(O)c2sccc2S1(=O)=O [Tenoxicam] | inactive: 39.1%
COc1cc(-c2ncn(/C=C\C(=O)OC(C)C)n2)cc(C(F)(F)F)c1 | active: 14.1%
CO/C(O)=C1\C(C)=NC(C)=C(C(=O)OCCN2CCN(C(c3ccccc3)c3ccccc3)CC2)C1c1cccc([N+](=O)[O-])c1 (stereo unspecified) [Manidipine] | inactive: 42.8% and inactive: 51.3%
O=c1c(O)c(-c2cc(O)c(O)c(O)c2)oc2cc(O)cc(O)c12 [Myricetin] | inactive: 34.4%
O=C(O)c1cccc(-c2noc(-c3ccccc3F)n2)c1 [Ataluren] | inactive: 45.4%
CCc1nc(N)nc(N)c1-c1ccc(Cl)cc1 [Pyrimethamine] | inactive: 44.1%
Cc1cnc(C(=O)NCCc2ccc(S(=O)(=O)NC(=O)NC3CCCCC3)cc2)cn1 [Glipizide] | inactive: 41.1%
O=C1C(Cl)=C(N2CCOCC2)C(=O)N1c1ccc(Cl)c(Cl)c1 | inactive: 40.2%
CCOc1ccc2ccccc2c1C(=O)N[C@@H]1C(=O)N2[C@@H]1SC(C)(C)[C@@H]2C(=O)O [Nafcillin Sodium] | inactive: 49.6%
O=C(O)c1ccccc1 [Benzoic Acid] | inactive: 44.8%
CCOC(=O)C1=C(C)N=C(C)/C(=C(/O)OCC)C1c1ccccc1/C=C/C(=O)OC(C)(C)C (stereo unspecified) [Lacidipine] | inactive: 45.2%
CC(=O)Nc1nc2c(Oc3cc(-c4ccc(C(F)(F)F)cc4)ncn3)cccc2s1 | inactive: 55.4%
O=C1c2ccccc2-c2[nH]nc3cccc1c23 [2,6-Dihydroanthra/1,9-Cd/Pyrazol-6-One] | inactive: 40.5%
COC(=O)Nc1ccc(-c2nc(N3CCOCC3)c3cnn(C4CCN(C(=O)OC)CC4)c3n2)cc1 | inactive: 36.4%
Clc1ccc(COC(Cn2ccnc2)c2ccc(Cl)cc2Cl)cc1 (stereo unspecified) [Econazole] | inactive: 39.9%
Cc1ccc(-c2c(-c3nn(C)c4ncnc(N5CC[C@H](N6CCCCC6)C5)c34)cnn2C)cc1 | inactive: 45.1%
CC1(C)O[C@@H]2C[C@H]3[C@@H]4C[C@H](F)C5=CC(=O)C=C[C@]5(C)[C@@]4(F)[C@@H](O)C[C@]3(C)[C@]2(C(=O)CO)O1 [Fluocinolone Acetonide] | inactive: 38.9%

— the supplement of paper PMC11060735
